Source: the supplement of paper PMC3334620
The full ranking holds about 33,000 sequences; the median of “E-score (-0.5 to 0.5)” is about -0.041, and the highest 2% start at about 0.37. Some of the results follow.

The sequences below were run against T1, Ecm22 (UniProt Q05958) (assay: PBM E-score (8-mer binding enrichment) (E-score (-0.5 to 0.5)); higher = stronger / more preferred TF binding; most listed sequences are background and not binding sites). Settings: protein concentration: 200 nM; construct: GST-full length.
T1 sequence: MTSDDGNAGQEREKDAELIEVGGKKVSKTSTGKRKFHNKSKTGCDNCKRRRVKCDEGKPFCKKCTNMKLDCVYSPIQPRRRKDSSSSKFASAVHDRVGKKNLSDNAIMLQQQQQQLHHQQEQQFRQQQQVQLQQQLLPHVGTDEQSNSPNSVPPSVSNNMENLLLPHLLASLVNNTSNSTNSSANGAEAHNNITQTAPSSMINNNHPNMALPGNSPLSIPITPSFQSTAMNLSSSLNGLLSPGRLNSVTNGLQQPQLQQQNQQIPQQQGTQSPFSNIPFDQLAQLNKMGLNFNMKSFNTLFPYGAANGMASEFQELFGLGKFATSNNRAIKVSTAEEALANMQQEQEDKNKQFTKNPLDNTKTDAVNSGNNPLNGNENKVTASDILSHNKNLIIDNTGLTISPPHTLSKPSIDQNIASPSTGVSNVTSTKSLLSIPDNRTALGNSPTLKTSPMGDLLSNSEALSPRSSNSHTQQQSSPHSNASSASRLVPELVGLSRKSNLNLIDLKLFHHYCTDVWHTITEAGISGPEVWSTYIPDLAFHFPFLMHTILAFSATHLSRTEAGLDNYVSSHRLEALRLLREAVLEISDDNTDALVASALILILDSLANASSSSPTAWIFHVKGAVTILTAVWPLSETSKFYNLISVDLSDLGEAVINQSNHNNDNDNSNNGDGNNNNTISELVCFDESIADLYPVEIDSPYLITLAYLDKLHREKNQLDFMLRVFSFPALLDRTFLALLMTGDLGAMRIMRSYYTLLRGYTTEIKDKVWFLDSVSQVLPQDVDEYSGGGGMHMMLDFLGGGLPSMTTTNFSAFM
Experimental: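 Universal 'all 10-mer' protein binding microarrays (Agilent AMADID 015681) probed with GST-tagged S. cerevisiae TFs (full-length or DBD) made by in vitro transcription/translation (PURExpress), about 100-200 nM. Bound TF was detected with fluorescent anti-GST. Each ungapped 8-mer (which stands for itself and its reverse complement) is scored by the PBM enrichment score (E-score), a modified Wilcoxon-Mann-Whitney statistic from -0.5 to +0.5, computed with the Universal PBM Analysis Suite. Scale: above 0.35 generally sequence-specific binding.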

Sequence | PBM E-score
ATGTGAAT | 0.133
AGCTACAG | -0.26
AAATCCAT | 0.108
AGTTTACA | -0.0418
CCTCCTTC | -0.0536
AAAGAAGC | -0.0769
CCAAGCGC | -0.211
ATACGGAT | 0.332
ATCCGGCG | 0.031
ACAGCGCA | -0.19
GCGAATTA | 0.169
AGAGAGAC | -0.214
GACGTGGA | -0.195
AAGTAGCC | -0.295
AACATTTC | -0.0204
ACAATTGG | -0.16
GAGCTTGC | -0.183
CCGACTCC | 0.0133
GGTAATCA | -0.14
TAAAAGGA | 0.0115
CTTGCGTC | -0.2
ACATTTTG | -0.139
ACCCACAT | -0.00774
CCACAAAG | -0.0691
CCGAATAA | 0.221

Sequence | PBM E-score
ACAGAAGA | -0.118
GTACGCTA | 0.244
ACGGTGTG | 0.0821
CAACAACC | 0.075
CGAGCCAC | 0.2
CCTCTGAC | -0.173
CTAAGTTA | -0.039
AAGATCAT | -0.043
TCCTCAGA | -0.181
CGCGCAAG | 0.123
GGCACCCC | -0.0529
AGCCGAGA | 0.0153
ATAGACGC | -0.114
ATCAGGAA | 0.0244
CCGCTGCA | -0.182
CTGTGACA | -0.272
AACAGAGC | -0.163
CTGCGAAG | -0.0466
AACATCTG | -0.131
TCGGGAGA | 0.128
AATCTTCT | -0.151
AGAATCCG | 0.17
AGACACGG | -0.0314
CTGTCTTA | 0.00222
CGACTAGC | 0.0272

Sequence | PBM E-score
ATGCCCCA | -0.165
CAAGGAGG | -0.166
GCTTGTTA | -0.00655
GCCCTTTA | -0.12
ACCACCAT | -0.103
AATAAGCT | -0.013
GATTTAAA | -0.158
CGTCTTGC | -0.128
GGCCGATA | -0.032
ATCAAGAT | -0.0385
AGGGCTTC | -0.0968
TACTTTAA | -0.0463
ACAAGGGG | -0.185
TTCACGAA | 0.104
ATGGCTTA | -0.0613
ACCTATCG | 0.131
CCAATATA | -0.197
CATTCCGG | -0.248
CAGGCCCC | -0.236
GCCATTAC | 0.0127
GCTATAGC | -0.117
AAGCTAGG | -0.253
CCCCAGTC | -0.0807
CAGCAATA | -0.101
CCCATGCA | -0.235

Sequence | PBM E-score
TCTATAAA | 0.166
CATCTTAC | -0.13
ACAACTAT | -0.0516
AGCATAGG | -0.204
CGGATATC | 0.181
ATAGTCGA | 0.127
ACACTAGA | 0.0273
ACGATGGA | 0.335
AAGTAGGC | -0.0192
AGATGCCG | -0.0311
AGGGGATG | -0.258
ATTGATGA | 0.0159
CGGCCCAA | 0.165
CGGAACCA | -0.0635
GACTAGCC | -0.1
TTAGTAAA | -0.0125
ACCGCGAG | 0.109
CTGTCCAC | -0.197
CCACGAGG | 0.00398
AAATATAA | 0.0754
ACTACAGC | -0.115
CCGGGCGA | -0.111
AGCGTCGC | 0.251
ATGACACG | 0.0709
AAACCGAG | 0.252

Sequence | PBM E-score
AAGCAGGG | -0.121
GCATAATA | 0.224
AGGACGGA | -0.0124
GGTGGGGA | -0.0897
AAACTGTA | 0.154
ACAATTTG | -0.0227
AGTGTAAT | -0.0548
AAACGGCG | 0.391
CACTAAAC | 0.173
AGCGAGGA | 0.265
CATACGGA | 0.362
CATGAAAG | 0.0691
CCGGGCGC | -0.265
AGGGCAAA | -0.0896
GCGCAAAC | 0.11
GCTGCAAC | -0.0658
ATGTGTTC | -0.187
GCCAGCAC | -0.29
TCGACGAA | 0.0659
CGCACCCG | 0.23
TCCGGAAA | 0.00935
GTTAGGAA | 0.0589
CACATGAG | -0.269
ATGCCCGC | 0.0331
CGAGCGCA | 0.195

Sequence | PBM E-score
CAACTACC | -0.0922
ACTTAAAC | 0.175
TAGACGCA | 0.0239
ATATTTGC | 0.0527
AGCAGATC | -0.0426
ATCGCAGG | -0.119
GAGCGTGC | 0.151
CGGGCGAG | 0.0404
ATCGCCTG | -0.219
AAATAACG | 0.171
GCAGAGGC | -0.2
AGACGCAA | -0.201
GGGCAGAA | -0.0488
GGATGTAA | 0.037
ATTGAGAC | -0.252
CACTTTAG | -0.165
GGATTCTA | -0.0442
ATCTGTTC | -0.0862
CTCGTAGC | 0.449
GGCTCAAC | -0.155
CGTCTTAC | 0.0844
CCCTTACG | 0.134
CCGAAATC | 0.0336
CATATCTA | 0.0239
TGTGCAAA | 0.0842

Sequence | PBM E-score
AGCGGGTA | 0.107
AACACGCA | -0.133
CGTCTCCC | 0.0394
GCATGCGC | -0.108
AGACTTGA | 0.0107
AGTACAAT | 0.0372
CATGCCCC | -0.167
TGTTGGAA | -0.112
CAGAAAGC | -0.0509
AAGTCCGT | 0.00771
ACGTCGAA | 0.195
GGTTTAAA | -0.119
GTGCACAA | 0.0231
ATTGTCTG | 0.0507
AGTACCGC | 0.148
ATGGTCGG | 0.17
AGGCATAA | -0.16
CTGCACTA | -0.203
CAATATAG | -0.0536
CTGCTAGC | -0.316
CTGAATTA | -0.1
AAATTACT | -0.0113
